These results are taken from the supplement of paper PMC11417369.

± gives the standard deviation of the averaged measurements. The list shows a part of the results.

In the experiment the test system is PfAP2-EXP AP2 domain (GST-tagged). Description: gcPBM binding intensity (ln(normalized median fluorescence intensity)); higher = stronger DNA binding. The method, boiled down: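 In this array assay, P. falciparum DNA-binding domains with a GST tag, expressed in E. coli, were applied for 1 h to primer-extended double-stranded 36-bp intergenic genomic probes and negative controls on an Agilent 4 × 180k array. Bound protein was visualised with Alexa488 anti-GST antibody at 488 nm. Binding intensity is the highest Masliner-normalised natural-log median intensity across replicate spots of either probe orientation.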
Take “TTGCATTACGAACATACACACAGAATAACTGAAAAC [CACACA_site3025]”: the “gcPBM binding intensity (ln)” value was found to be 8.88 ± 0.53.
The same measure for “TTCGATGAATATACAAGTACATATCCTTACGAACTG [XGTACX_site1650]”: 8.26 ± 0.41.
In the case of “TATTTGTGTATTTTTACACACATTAATATATTTATA [CACACA_site7562]” it was 8.08 ± 0.27.
In the case of “TGTACAAATTATACTTCGAACGAAGGGCATACATAT [XGTACX_negctrl_site37]”, the “gcPBM binding intensity (ln)” value was determined as 8.88 ± 0.42.
Consider “TATATATATATTATATGTACACATTTGTGAATTATT [XGTACX_site5848]”, for which the “gcPBM binding intensity (ln)” value came to 9.46 ± 0.26.
Take “TATAGATAACAAAAGTGTACATGTTGTATACACATG [XGTACX_site3471]”: the “gcPBM binding intensity (ln)” value was 8.73 ± 0.31.
The same measure for “AACAACTATTACTGCACACATTCTTACACTATATAA [CACACA_site654]”: 9 ± 0.3.
The same measure for “TATATATATAAACACACACACACACCCAAGCGTAGC [CACACA_site4210]”: 9.12 ± 0.29.
Turning to “TATTCCTATATAAAGACACACATATGTAACTACGAT [CACACA_site4139]”, the “gcPBM binding intensity (ln)” value was 8.66 ± 0.57.
As to “TGTGTTATATATAAAGAAAAAAAAAAAAAATATATA [CACACA_negctrl_site567]”, the “gcPBM binding intensity (ln)” value was found to be 8.46 ± 0.42.
As to “AAAAATTTAATTATTTGTACATAAAATACATTTCTG [XGTACX_site791]”, the “gcPBM binding intensity (ln)” value was found to be 8.14 ± 0.38.
“ATTATAATAATGTGATGTACATTAATTGTCTTCCTA [XGTACX_site5404]”: the “gcPBM binding intensity (ln)” value is 8.63 ± 0.41.
In the case of “AATACATCATTAAAATGTACATATATATATACATTA [XGTACX_site132]” it was 8.32 ± 0.35.
For the sequence “ATATATATTAATTTTGTGCACAAATGGAAATGTTTG [GTGCAC_site9971]”, the “gcPBM binding intensity (ln)” value amounted to 8.97 ± 0.26.
For “GAAATAAGGGTTATTTCACACATTGCATGTATTTTC [CACACA_site5752]”, the “gcPBM binding intensity (ln)” value was 8.95 ± 0.49.
Regarding “AAATACTTAACATTGGTGCATATTTGTAAAATTATT [GTGCAC_site9515]”, the “gcPBM binding intensity (ln)” value amounted to 8.79 ± 0.13.
As for “TTTTTTTTTTTTTTATGTACTAAAAAATGAAAAATA [XGTACX_site6812]”, the “gcPBM binding intensity (ln)” value turned out to be 8.27 ± 0.43.
The same measure for “AAAAAAAAAAAAAAAACACACACATATATATAATAT [CACACA_site9038]”: 8.67 ± 0.23.
For TTATTTATTTATTGGGTGCACTTGATTTAAATATGC, the “gcPBM binding intensity (ln)” value was 9.26 ± 0.69.
For “AGAATACAAAATTGCACACATATTGTGAAAATGTTA [CACACA_site4005]”, the “gcPBM binding intensity (ln)” value was found to be 8.39 ± 0.28.
Turning to “ATGCAATAATAATATTGTACGCATATATTTTTTACT [XGTACX_site3384]”, the “gcPBM binding intensity (ln)” value is 8.41 ± 0.3.
The same measure for “TTTTGGCTTCTAATATTATACAAAATGGTAAGGAAA [TGCATGCA_negctrl_site169]”: 8.58 ± 0.41; for “TTATAAAATATTTTTTGTACACATAATAGTAAGACT [XGTACX_site933]”: 8.63 ± 0.26.
In the case of “CCATAATATTATAGACGTACGAATATATATAAAAGA [XGTACX_site7295]” it was 9.18 ± 0.47; in that of “CACCCACACCAACACACACACATATATAATATATAT [CACACA_site595]”, 8.81 ± 0.39.
In the case of “GATTAATACACATTCTTCCGACATAATAAGAAAAAG [GTGCAC_negctrl_site7]” it was 8.55 ± 0.47.
As to “CTTATATTTAGACACACACACAATAAAATGAAAAAA [CACACA_site1031]”, the “gcPBM binding intensity (ln)” value amounted to 8.76 ± 0.69.
In the case of “AACCATGTTAACAACGCATGTATATCTATGGGTTTA [TGCATGCA_site419]” it was 8.33 ± 0.35.
Regarding “AATACATGCTTATTTTAACACACAAATGGTAGTAAT [CACACA_site8154]”, the “gcPBM binding intensity (ln)” value was 8.49 ± 0.38.
As for “GATTATTTTATAAGTACACACATTTATCTATAATAA [CACACA_site7256]”, the “gcPBM binding intensity (ln)” value was found to be 8.42 ± 0.18.
In the case of “TTTTTTAAATGTCATTGTACATAATTCAATATATAA [XGTACX_site5]” it was 8.24 ± 0.13; in that of “TGACTTTTTTTATGTTGTACTTATTATAAAAAAAAT [XGTACX_site7736]”, 8.77 ± 0.49; in that of “AGCTAATATATCTTATATTCATATAAAAAAATATAT [CACACA_negctrl_site1786]”, 8.19 ± 0.35.
The same measure for “ATTAAAACACAATATTCACACATGTATATTATATAT [CACACA_site5191]”: 8.39 ± 0.33; for “TTAACATACACTCTAGTGCATATATATAACAAAATA [GTGCAC_site9724]”: 8.72 ± 0.14.
Take “ATCATATTTATATTGGTGCATTATGCATGAAATTTA [GTGCAC_site9571]”: the “gcPBM binding intensity (ln)” value was 8.92 ± 0.11.
With “AATTTAAATCTTCAAAGTACTAAAAAAAAAAATAAT [XGTACX_site8566]”, the “gcPBM binding intensity (ln)” value was 8.62 ± 0.52.
Take “AAACGATTAATGTGTACACACATAGTTATAAACATA [CACACA_site7073]”: the “gcPBM binding intensity (ln)” value was 8.59 ± 0.24.
On to TTACACATGTATTTGGTGCATGTTGTTAACAAAATA, for which the “gcPBM binding intensity (ln)” value stood at 8.72 ± 0.13.
The same measure for “CGCCCACAGATATATACACACATATATAAATAAATA [CACACA_site6877]”: 8.6 ± 0.66; for “TATGCTTTGATGAAGACACACATATAGAAGCGTATT [CACACA_site1925]”: 8.53 ± 0.41; for “TATGTTATAAAATATATATTATAATATGTATATATA [XGTACX_negctrl_site233]”: 8.19 ± 0.45.
As for “TACTTTTATAAAAATTGTACAAAAAAAAAAAAAAAA [XGTACX_site2266]”, the “gcPBM binding intensity (ln)” value worked out at 8.2 ± 0.49.
Regarding “AAAACTATTTCTTTCAGTACATATTTGGACTTATAT [XGTACX_site4977]”, the “gcPBM binding intensity (ln)” value was found to be 8.45 ± 0.43.
In the case of “ATATAAATTTAATACACACCCAAAAAAAAAAAAAAA [CACACA_site3750]” it was 8.22 ± 0.42.
